Experimental data reported in publication PMC4336329 (PLoS ONE, 2015).
About 14,000 (4.5%) of roughly 310,000 compounds showed an effect of 50% or more. Effects have a minus sign here. The list shows a part of the results.

molecular target: human ether-à-go-go-related gene (hERG) potassium channel (human, UniProt Q12809); experiment: primary screen, population patch clamp on CHO cells stably expressing hERG
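Also: peak tail current of the secondary pulse compared with the same well before compound.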

Chain of human ether-à-go-go-related gene (hERG) potassium channel (Q12809 whole entry, looked up): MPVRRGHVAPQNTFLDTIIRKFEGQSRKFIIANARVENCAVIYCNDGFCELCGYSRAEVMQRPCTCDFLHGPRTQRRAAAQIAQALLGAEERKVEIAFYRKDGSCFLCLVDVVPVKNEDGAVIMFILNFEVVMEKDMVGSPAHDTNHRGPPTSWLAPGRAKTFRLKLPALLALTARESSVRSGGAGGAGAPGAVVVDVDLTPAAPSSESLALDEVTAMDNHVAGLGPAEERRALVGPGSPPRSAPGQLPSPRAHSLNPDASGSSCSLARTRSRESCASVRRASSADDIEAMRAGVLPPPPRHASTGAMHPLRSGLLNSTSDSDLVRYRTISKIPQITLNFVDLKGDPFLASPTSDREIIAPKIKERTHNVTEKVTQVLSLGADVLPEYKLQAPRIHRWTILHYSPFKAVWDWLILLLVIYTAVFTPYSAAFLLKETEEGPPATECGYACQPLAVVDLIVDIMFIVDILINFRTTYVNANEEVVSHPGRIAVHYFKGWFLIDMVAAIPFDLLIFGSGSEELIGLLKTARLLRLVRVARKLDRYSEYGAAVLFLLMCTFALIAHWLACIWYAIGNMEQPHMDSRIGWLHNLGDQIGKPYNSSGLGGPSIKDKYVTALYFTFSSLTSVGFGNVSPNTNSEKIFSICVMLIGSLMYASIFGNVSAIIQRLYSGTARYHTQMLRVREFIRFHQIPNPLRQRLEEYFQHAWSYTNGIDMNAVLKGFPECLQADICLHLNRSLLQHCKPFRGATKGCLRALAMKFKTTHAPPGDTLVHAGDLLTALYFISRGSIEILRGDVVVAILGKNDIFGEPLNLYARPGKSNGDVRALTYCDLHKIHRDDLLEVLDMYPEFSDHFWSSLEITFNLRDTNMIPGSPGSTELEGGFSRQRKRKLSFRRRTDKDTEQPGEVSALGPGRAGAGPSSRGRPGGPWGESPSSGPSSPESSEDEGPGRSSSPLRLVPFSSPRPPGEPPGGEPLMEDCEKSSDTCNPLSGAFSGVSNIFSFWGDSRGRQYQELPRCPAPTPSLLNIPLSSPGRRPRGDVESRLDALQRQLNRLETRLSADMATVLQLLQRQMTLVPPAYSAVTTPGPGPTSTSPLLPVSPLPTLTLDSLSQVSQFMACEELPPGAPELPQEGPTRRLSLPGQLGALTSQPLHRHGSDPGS

Compound	hERG current change (%, negative = inhibition) at 10uM
COc1cccc(C2=CC(c3ccc(N(C)C)cc3)n3nnnc3N2)c1 (stereo not shown)	4.74%
Cc1cc(C)c2c(=O)c(C#N)coc2c1	-0.22%
COc1ccc(-n2nc3c(c2NC(=O)COc2ccccc2F)CS(=O)(=O)C3)cc1	2.75%
Cn1c(O)c(C=NCCCCCCCCCCC(=O)O)c(=O)n(C)c1=O	1.01%
COc1ccc(F)c(CN2CCCC(CO)(Cc3cccc(Cl)c3)C2)c1 (stereo not shown)	-30.6%
FC(F)(F)c1cc(-c2cccs2)nc(N2CCOCC2)n1	1.94%
CCSc1nc(O)c(C(c2cccc(OC)c2)c2c(O)nc(SCC)[nH]c2=O)c(=O)[nH]1	10.7%
Cc1cccc(Nc2nnc(SCC3CCCCO3)s2)c1C (stereo not shown)	-36.5%
COC(=O)CC1C(C(=O)OC)ON2OC(C(=O)OC)C(C(=O)OC)C12 (stereo not shown)	2.95%
Cc1ccc(-n2nc3cc(C)c(NC(=O)c4cccnc4)cc3n2)cc1	7.73%
COc1ccc(S(=O)(=O)N2CCOC2CNC(=O)C(=O)NCCCc2ccccc2)cc1 (stereo not shown)	-29.6%
COc1ccccc1Nc1nc(N)nc(-c2cc3ccccc3o2)n1	23.4%
Cc1cccc(NC(=O)c2ccc(S(=O)(=O)N3CCN(C)CC3)cc2)c1C	15.1%
COC(=O)C1=C(C)N(C)C(=O)/C1=C\c1ccco1	-1.58%
CCOc1ccc2nc(NC(=O)c3cccnc3)sc2c1	14.8%
O=C(CCc1ccccc1)Nc1cccnc1Cl	13.4%
CCO[C@@H]1OC(C(=O)Nc2ccccc2)=C[C@H](c2ccc(C(F)(F)F)cc2)[C@H]1CCCO	-10.8%
Cc1cccc(OC2(c3ccccc3)OC(=O)c3ccccc32)c1C (stereo not shown)	8.61%
CCOC(=O)[C@H]1[C@H]2COc3ccccc3[C@@H]2N2C(=O)[C@@H](CO)NC(=O)[C@@]12C	12.8%
CCOC(=O)[C@]1(C#N)[C@@H]2C=CC(C(C)=O)=CN2[C@@H](C(N)=O)[C@@H]1c1ccsc1	-2.96%
CCC(C(=O)c1ccccc1)N(C(=O)c1ccccc1Cl)N1C(=O)C2C3C=CC(C3)C2C1=O (stereo not shown)	-7.79%
Cc1ccnc(NS(=O)(=O)c2ccc(NS(=O)(=O)c3cccs3)cc2)n1	13.5%

Compound	hERG current change (%, negative = inhibition) at 10uM
O=[N+]([O-])c1ccc(NS(=O)(=O)c2cccc3cccnc23)cc1	7.19%
COc1ccc(OC)c(C2=Nn3c(nnc3-c3ccco3)SC2)c1	-12.6%
CC(C)[C@H](NC(=O)c1cccc(CN(Cc2ccccc2)C(=O)/C=C/c2ccccc2)c1)C(=O)O	12.7%
COc1ccc(CN(C)C(C)C(=O)Nc2ccc(S(=O)(=O)N3CCCCC3)cc2)cc1F (stereo not shown)	-19.7%
CC(=O)Oc1ccc(Cn2cnc3cc4ccccc4cc32)cc1	-5.72%
Cl.Nc1nc(N2CCN(c3ccccn3)CC2)nc2ccccc12	-68.4%
Cc1c(NC(=O)c2ccc3c(c2)C(=O)N(CC2CCCO2)C3=O)cccc1C(=O)O (stereo not shown)	24.4%
CSc1sc(C(=O)O)c(C)c1C(C)=O	12.7%
COc1ccc(N2CCN(C(=O)Cc3csc(NC(=O)Nc4ccccc4OC)n3)CC2)cc1	1.05%
Cc1cccc(OCCCC(=O)Nc2ccc3c(c2)OCO3)c1	0.548%
CCCNc1ncnc2onc(C)c12	19.5%
CC(Cl)C(=O)NN=C(c1ccccc1)c1ccccc1 (stereo not shown)	5.34%
CCC(=O)NC(=Nc1nc2ccccc2s1)NC(=O)CC	-0.0769%
Cc1cccc(OCC(=O)Nc2ccccc2C(=O)N2CCOCC2)c1	9.7%
O=C(NCc1ccc(F)cc1)C1CCN(S(=O)(=O)c2ccc3c(c2)OCCCO3)CC1	-23.6%
CC(=O)CCCCn1c(=O)c2c(ncn2C)n(C)c1=O	-1.46%
CCOc1ccc(CN=C(N)N=C(N)N)cc1Cl.Cl	-10%
CCN(CCn1cccn1)Cc1ccccc1OCC(O)CN1CCc2ccccc2C1 (stereo not shown)	-51.5%
Cc1ccc(/C=C2\CCn3c2nc2cc(C(=O)O)ccc2c3=O)c(C)c1	7.99%
Cc1cccc(NC(=O)CN2CCN(C(=O)c3ccc(OCc4cn5ccccc5n4)cc3)CC2)c1C	-46.5%
C/C(CC(=O)NC1CCCCC1)=N\NC(=O)c1ccccc1C	4.38%
CC(=O)Nc1cccc(C(=O)OCC(=O)NCc2ccc(F)cc2)c1	-1.75%

Compound	hERG current change (%, negative = inhibition) at 10uM
CCOC(=O)C1=NNC2C(=O)N(CC)C(=O)C12 (stereo not shown)	9.23%
O=C(Nc1ccc(Cl)cn1)C1CCCN1S(=O)(=O)c1ccc(Cl)cc1 (stereo not shown)	-11.6%
CC1CN(c2nc3ccccc3nc2C(C#N)C(=O)NCc2ccc3c(c2)OCO3)CC(C)O1 (stereo not shown)	15.1%
Cc1ccc(S(=O)(=O)NC2(C(F)(F)F)C(=O)Nc3c2c(=O)n(C)c(=O)n3C)cc1 (stereo not shown)	18.4%
CCN(CC)c1ccc(N2C(=O)CSC2=S)cc1	-15.2%
COc1ccccc1CCc1nnc(CCC(=O)NC(C)Cc2ccsc2)o1 (stereo not shown)	-6.75%
CC(Oc1ccc(Cl)cc1Cl)C(=O)Nc1ncccn1 (stereo not shown)	-2.67%
CCc1cccc(CC)c1N1C(=O)c2cc(N3CCOCC3)c([N+](=O)[O-])cc2C1=O	-22.1%
CCCCn1c(N)c(N(CC(C)C)C(=O)CSCc2c(C)noc2C)c(=O)[nH]c1=O	5.89%
c1ccc(CN2CCN(c3nc4ccccc4n4cnnc34)CC2)cc1	-12.6%
C=CCSC1=C(C#N)C2(CCCCC2)C(C#N)C(=O)N1 (stereo not shown)	-3.87%
O=C1C=C(c2ccc(O)cc2)C[C@@H](c2ccc3c(c2)OCO3)C1	-0.255%
O=C(CN(c1ccc(F)cc1)S(=O)(=O)c1ccc2c(c1)OCCO2)NCc1cccnc1	-12.9%
Cc1c(NC(=O)CCCOc2ccccc2)cccc1[N+](=O)[O-]	-1.48%
CN(C)S(=O)(=O)c1ccc(Cl)c(NC(=O)COC(=O)/C=C/c2cnc3ccccc3n2)c1	-9.71%
CCCCOC(=O)c1[nH]c2c(c1C)C(=O)CC(c1cc(OC)c(OC)c(OC)c1)C2 (stereo not shown)	10.8%
COc1ccc(-c2nn(C)c(=O)c3ccccc23)cc1CNC(=O)C1CCCCC1	-56.3%
COc1ccc(NC(=O)C2CCCN(S(=O)(=O)c3ccc4[nH]c(=O)ccc4c3)C2)cc1 (stereo not shown)	9.08%
NCCCC[C@H]1NC(=O)[C@H](CCC(=O)O)NC(=O)c2cc([N+](=O)[O-])cc(I)c2OCC[C@@H](C(N)=O)NC1=O	26.6%
CCOc1ccc(C(=O)Cn2cnc3ccccc3c2=O)cc1	-15.9%
O=c1c2c(-c3cccs3)csc2ncn1-c1ccccc1	-28.3%
Cc1cccc(C)c1NC(=S)N1CC(C)OC(C)C1 (stereo not shown)	5.1%

Compound	hERG current change (%, negative = inhibition) at 10uM
COc1cccc(C2C(C(=O)c3ccc(C)o3)=C(O)C(=O)N2CCN2CCOCC2)c1 (stereo not shown)	32.1%
C[C@@H]1C[C@@H]([C@H](O)CC2CC(=O)NC(=O)C2)C(=O)[C@@H](C)C1	15.3%
Cc1ccc(-n2c(-c3ccccc3)n[nH]c2=S)cc1	15.6%
Cc1cc(C)cc(Oc2ccc(-c3nnc(-c4ccccc4)o3)cc2[N+](=O)[O-])c1	7.94%
O=C1N[C@@H](Cc2ccccc2)C(=O)N2[C@@H]3N(S(=O)(=O)c4ccc(F)cc4)c4ccccc4[C@]3(Br)C[C@@H]12	-14.3%
Cc1sc2ncn(C(C)C(=O)OC3CCCCC3)c(=O)c2c1C (stereo not shown)	-18.6%
O=C(Nn1cnc2ccccc2c1=O)c1ccccc1[N+](=O)[O-]	15%
CCc1ccc(-c2cc3c(=O)n(CC(=O)N4CCCC4)nc(C)n3n2)cc1	4.81%
Clc1ccc(C2=Nc3cc(Cl)ccc3OC2)cc1	25.9%
O=S(=O)(CCSc1nc2ccccc2o1)Cc1ccccc1	-0.259%
O=C(O)c1nccnc1C(=O)NCCc1c[nH]c2ccccc12	-4.91%
COc1ccccc1CC(=O)Nc1cccc(F)c1	12.2%
CCC(=O)c1cn(CC(=O)Nc2ccccc2Cl)c2ccccc12	21.1%
COCC(=O)Nc1cc(C(=O)Nc2ccccc2C)ccc1Cl	-3.92%
CCOc1ccc(CN(C)C(=O)CNC(=O)c2ccc(Br)o2)cc1OC	-2.55%
CC(C)CC(c1nnnn1CCc1ccccc1)N1CCN(C(=O)c2ccco2)CC1 (stereo not shown)	-46.6%
COC(=O)CCCC1=CC2=CC(=O)C(C)(OC(=O)c3cccs3)C(=O)C2=CN1C1CCCCC1 (stereo not shown)	-7.95%
O=S(=O)(Nc1ccc(-c2nc3cccnc3s2)cc1)c1cccs1	26.9%
Cc1ccc(SCC(=O)OCC(=O)N2CCN(C(=O)c3ccco3)CC2)c(C)c1	-41.6%
